The text below walks through data of PMC7489899.

Protein sequences, listed by entry. Tags and fused reporters are not part of them. Lines headed by an entry give the natural chain unless they say otherwise; changes in a name come on top.
UniProt P50077: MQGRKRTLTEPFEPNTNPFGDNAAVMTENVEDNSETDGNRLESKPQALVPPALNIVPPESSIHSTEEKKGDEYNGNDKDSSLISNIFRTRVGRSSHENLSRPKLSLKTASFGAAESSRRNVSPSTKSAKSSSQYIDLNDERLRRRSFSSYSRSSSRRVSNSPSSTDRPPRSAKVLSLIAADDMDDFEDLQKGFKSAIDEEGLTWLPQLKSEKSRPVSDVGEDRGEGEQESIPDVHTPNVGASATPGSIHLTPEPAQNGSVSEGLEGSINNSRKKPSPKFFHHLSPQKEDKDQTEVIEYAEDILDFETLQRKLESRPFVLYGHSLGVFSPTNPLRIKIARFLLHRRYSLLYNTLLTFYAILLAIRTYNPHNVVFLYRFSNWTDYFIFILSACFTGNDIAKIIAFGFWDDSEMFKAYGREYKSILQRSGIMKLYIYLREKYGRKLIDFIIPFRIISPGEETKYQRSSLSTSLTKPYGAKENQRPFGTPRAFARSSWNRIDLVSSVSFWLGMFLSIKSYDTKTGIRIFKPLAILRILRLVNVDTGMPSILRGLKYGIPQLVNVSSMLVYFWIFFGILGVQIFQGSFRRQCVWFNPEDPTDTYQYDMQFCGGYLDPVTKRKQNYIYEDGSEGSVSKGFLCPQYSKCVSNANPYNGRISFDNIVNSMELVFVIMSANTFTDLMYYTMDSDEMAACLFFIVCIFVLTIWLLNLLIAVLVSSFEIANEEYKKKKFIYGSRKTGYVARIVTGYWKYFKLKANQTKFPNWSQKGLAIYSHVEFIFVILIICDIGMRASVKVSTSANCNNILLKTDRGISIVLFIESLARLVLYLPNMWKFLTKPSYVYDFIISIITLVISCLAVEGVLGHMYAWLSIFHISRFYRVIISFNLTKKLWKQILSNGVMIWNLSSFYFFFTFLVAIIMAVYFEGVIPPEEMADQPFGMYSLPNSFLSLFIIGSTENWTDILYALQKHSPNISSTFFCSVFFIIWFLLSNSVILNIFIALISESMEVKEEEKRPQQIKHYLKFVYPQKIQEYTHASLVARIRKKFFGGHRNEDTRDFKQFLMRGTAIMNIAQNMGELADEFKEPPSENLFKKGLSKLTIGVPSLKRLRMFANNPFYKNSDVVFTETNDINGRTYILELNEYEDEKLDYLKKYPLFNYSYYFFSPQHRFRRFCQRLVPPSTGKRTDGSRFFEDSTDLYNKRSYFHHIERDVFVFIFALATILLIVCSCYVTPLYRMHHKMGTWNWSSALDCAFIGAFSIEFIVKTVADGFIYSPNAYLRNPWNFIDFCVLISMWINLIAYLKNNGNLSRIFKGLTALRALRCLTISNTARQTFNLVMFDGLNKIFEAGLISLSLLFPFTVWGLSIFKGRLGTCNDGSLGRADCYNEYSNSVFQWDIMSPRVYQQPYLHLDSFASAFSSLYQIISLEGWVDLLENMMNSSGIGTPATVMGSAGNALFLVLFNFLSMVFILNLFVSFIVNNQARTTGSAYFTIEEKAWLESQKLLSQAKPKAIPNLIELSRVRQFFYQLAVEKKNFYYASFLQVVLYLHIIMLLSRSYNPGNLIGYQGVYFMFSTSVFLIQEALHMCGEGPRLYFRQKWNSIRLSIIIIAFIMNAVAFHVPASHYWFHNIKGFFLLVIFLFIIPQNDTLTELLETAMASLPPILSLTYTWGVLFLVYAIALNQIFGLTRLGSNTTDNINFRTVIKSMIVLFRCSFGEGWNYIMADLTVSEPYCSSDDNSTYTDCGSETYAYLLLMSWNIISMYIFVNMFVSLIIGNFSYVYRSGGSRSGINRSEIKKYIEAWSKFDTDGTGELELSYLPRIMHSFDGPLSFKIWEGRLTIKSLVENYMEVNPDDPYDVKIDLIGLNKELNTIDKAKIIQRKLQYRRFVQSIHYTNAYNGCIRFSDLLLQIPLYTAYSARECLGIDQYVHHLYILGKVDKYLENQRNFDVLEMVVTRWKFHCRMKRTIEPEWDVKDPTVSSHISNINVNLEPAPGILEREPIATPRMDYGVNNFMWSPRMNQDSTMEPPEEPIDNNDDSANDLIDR

Results are given in words; binding and its absence hold for the method and conditions named. In cells and extracts the contact can be indirect. Some entries that bind do so weakly or less than the wild type. Tags and fused reporters may be left off the sequences shown.

Common to all, as to experiment: co-IP; whole-cell extracts of S. cerevisiae expressing both proteins; precipitated with anti-Cch1 antibody (Cch1 as bait) and nProtein A-Sepharose, 1 h at 4 °C; IP buffer 50 mM Tris-HCl pH 8.0, 1.0% Triton X-100, 150 mM NaCl, 2 mM EDTA; Western blot with anti-FLAG
The target in test [1] is Cch1 (Ca^2+ channel homolog 1), wild type (S. cerevisiae) (UniProt P50077).
The target in test [2] is Cch1-C1369A (S. cerevisiae) (UniProt P50077).
The target in test [3] is Cch1-C1379A (S. cerevisiae) (UniProt P50077).

B1: Mid1 tagged internally with FLAG (Mid1-FL^52), wild type (protein, UniProt P41821 21-548)
chain: LFQDFNPFANKNISLKFPSLNRWEKNVMATGQQTIINSDSIYEWTPILSNITAGKKDSFVFTIDAEASGYGFAPTYEVLMFISGNICQMPMNRSDVDLTIYYSFNETVLENPNIGQSAVFQDGYIQALAISPVQSSSSNATSTYSNLYVVAELVNSTTEQPLSSSDASENWEYRLSISENDLVFQWDVRPWVEVLDTDMNSALLSTGNVTADAKVYHNYSIYDPSLYDLYVYSYEDSVQLNQNYNLSLCAVKNGPYLVSSQNTSNATVTSNSTNPLERTDLAIQKKITEYGGSVTEMFYVTGLNASTTYVAYLTKKISNGDGLSSVGGILFSHVYFTTRSTDVCSLIFGLDFCSDVAYSVPTSSFSVGNKTLMAQTYDHIAEALYANFSKALQLISCDADKDARYSPVMTCDDCAEAYRDWVCAVSIPRCTTTSSQYYIHRDKSHNRNDYLNKFIKPLDDYYEILPCIDMCYTLVRNCPSDFQFSCPNDLTTEDLLYQSYNFYMDTDYSTCNYIGNSSLMVIHPLDDT
As for B1, the binding entry in test [1] is on record as “binds”; in test [2] it was “no binding”; in test [3], “no binding”.
